About 6,400 (1.6%) of roughly 410,000 compounds were called active. The inconclusive results got no clear call from the source; some entries with a clear call stand among them for comparison. Calls follow the shape of the dose curve; as a rule, active = well fitted inhibition curve with a large enough effect; inconclusive = small, poorly fitted or top-dose-only effect; inactive = no such curve, though single readings can be large or run the other way. Where the call is inconclusive, the potency comes from a doubtful curve fit.
target: Glucagon-like peptide 1 receptor (Homo sapiens) (UniProt P43220); assay: qHTS of GLP-1 Receptor Inverse Agonists (Inhibition Mode); conditions: HEK293 GLP-1R CRE-luciferase, luminescence, 24 h, GLP-1R form is constitutively active; series mostly up to 38.3 µM; also: nearly all actives have a fitted effect of over 55% in size
Procedure, shortened: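 Using stably transfected HEK293 (constitutively active GLP-1R, cAMP-luciferase reporter), compounds were incubated 24 hr and luciferase measured by luminescence.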
Potency is read from the fitted curve at half-maximal effect; tags tell the direction and shape of the fitted curve.

Sequence of UniProt P43220 (P43220 whole entry, looked up): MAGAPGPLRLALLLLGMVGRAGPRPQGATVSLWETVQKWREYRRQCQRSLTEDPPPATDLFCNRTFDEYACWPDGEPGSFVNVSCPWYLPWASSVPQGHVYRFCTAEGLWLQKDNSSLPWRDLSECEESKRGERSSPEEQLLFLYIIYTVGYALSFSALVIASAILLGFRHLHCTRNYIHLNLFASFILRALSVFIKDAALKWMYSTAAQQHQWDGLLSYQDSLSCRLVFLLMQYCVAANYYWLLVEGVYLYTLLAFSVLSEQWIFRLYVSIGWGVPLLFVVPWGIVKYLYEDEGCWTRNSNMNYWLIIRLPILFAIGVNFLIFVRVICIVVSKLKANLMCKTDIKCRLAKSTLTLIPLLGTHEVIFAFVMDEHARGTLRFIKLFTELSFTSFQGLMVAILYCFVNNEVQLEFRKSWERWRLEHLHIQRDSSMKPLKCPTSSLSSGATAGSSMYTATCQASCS

Potency, inconclusive:
COc1cc(C(=O)NCC2(c3ccccc3)CCCC2)ccc1OC(C)C 1.58 µM [inhibitor, partial curve, poor fit]
Cc1ccc(CNC(=O)CSc2c3c(nc4cc(Cl)ccc24)CCCC3)o1 28.2 µM [inhibitor, single point]
COc1ccc(NS(=O)(=O)c2c(C(=O)N3CCCCCC3)c(C)n(C)c2C)cc1 3.55 µM [inhibitor, full curve, poor fit]
CCN(CC)S(=O)(=O)c1cc(C(=O)NC2CCCCC2)ccc1C 7.08 µM [inhibitor, partial curve, poor fit]
COc1cc2c(cc1OC)C(COc1ccc(F)cc1)N(C(=O)Cc1ccc(F)cc1)CC2 (stereo unspecified) 28.2 µM [inhibitor, single point]
CSc1nsc(SC)c1C(=O)Nc1ccc(C(C)(C)C)cc1 5.62 µM [inhibitor, partial curve, poor fit]
Cc1cc(C)cc(N(C(=O)CCC(=O)Nc2cc(C)on2)C(C(=O)NC2CCCC2)c2ccco2)c1 (stereo unspecified) 28.2 µM [inhibitor, single point]
Cc1ccc(-n2c(SCC(=O)NCc3ccc(F)cc3)nc3c([nH]c4ccccc43)c2=O)cc1 10 µM [inhibitor, partial curve, poor fit]
Oc1ccccc1C(=S)N1CCN(c2cccc(Cl)c2)CC1 8.91 µM [inhibitor, partial curve, poor fit]
CCOC(=O)NC(=O)CSc1nc(C)cc(C)c1C#N 31.6 µM [inhibitor, single point]
COc1ccccc1OCC(=O)Nc1ccc(CSc2ccccc2)cc1C 3.98 µM [inhibitor, partial curve, poor fit]
O=C(Nc1ccccc1Cl)/C(Cl)=C(\Cl)S(=O)c1ccccc1 (stereo unspecified) 3.98 µM [inhibitor, full curve, poor fit]
CC[C@@]12C(=O)N(c3cccc(C)c3)C(=O)N1[C@H](c1ccc(Br)cc1)[C@@H]1C(=O)N(C(C)(C)C)C(=O)[C@@H]12 11.2 µM [inhibitor, partial curve, poor fit]
CCCN(Cc1ccccc1)C(=S)Nc1ccc(OCC)cc1 28.2 µM [inhibitor, single point]
CC(C)C[C@@H](CN1CCC[C@@H]1CN1C(=S)NC[C@@H]1Cc1ccc(O)cc1)N1C[C@H](Cc2ccc(O)cc2)N(CC2CCCCCC2)C1=S 0.501 µM [inhibitor, full curve, poor fit]
CNc1ccccc1C(C)(C)c1cn(-c2ccc([N+](=O)[O-])cc2)nn1 11.2 µM [inhibitor, partial curve, poor fit]
COc1ccc(S(=O)(=O)N2CCCN(CC(=O)Nc3ccc4c(c3)OCO4)CC2)cc1 5.62 µM [inhibitor, full curve, poor fit]
CSc1cccc(N2CC(C(=O)Nc3cccc(S(=O)(=O)N4CCCC4)c3)CC2=O)c1 (stereo unspecified) 31.6 µM [inhibitor, single point]
O=C(c1ccc2c(c1)OCO2)C1CCCN(C2CCN(CCc3ccccc3)CC2)C1 (stereo unspecified) 14.1 µM [inhibitor, partial curve, poor fit]
COc1ccc(/C=C2\SC(=O)N(CCc3nnc(N)s3)C2=O)cc1 28.2 µM [inhibitor, single point]
CCN1C(=O)C(CC(=O)Nc2ccc(OC)cc2)N(CCCN2CCN(c3ccc(OC)cc3)CC2)C1=S (stereo unspecified) 17.8 µM [inhibitor, partial curve, poor fit]
Cn1c(=O)[nH]c(=O)c2c1nc(Br)n2CC(O)COc1ccc(Cl)cc1 (stereo unspecified) 28.2 µM [inhibitor, single point]
Oc1ccc(-c2nccc(-c3ccc(F)cc3)n2)cc1 28.2 µM [inhibitor, single point]
CCOC(=O)C1=CCN(S(=O)(=O)c2ccc(C)cc2)C1c1cccc(Br)c1 (stereo unspecified) 10 µM [inhibitor, single point]
COc1cccc(CN2CCC(CO)(CC3CCCCO3)CC2)c1 (stereo unspecified) 2.51 µM [inhibitor, partial curve, poor fit]
Cc1ccc2oc(C(=O)N3CCCCCC3)c(C)c2c1 11.2 µM [inhibitor, partial curve, poor fit]
COc1cccc(C(C)(O)c2nc(-c3cccc(C(F)(F)F)c3)cs2)c1 (stereo unspecified) 10 µM [inhibitor, single point]
Cc1ccc(C)c(NCC(O)c2ccccc2)c1 (stereo unspecified) 28.2 µM [inhibitor, single point]
O=C(Nc1ccccc1)c1ccc(-c2ccccc2C(F)(F)F)o1 12.6 µM [inhibitor, single point]
C[C@@H]1CN([C@H](C)CO)C(=O)c2cc(NC(=O)Nc3ccc(C(F)(F)F)cc3)ccc2O[C@H]1CN(C)C(=O)Nc1ccc(F)cc1 7.08 µM [inhibitor, partial curve, poor fit]

Potency, inactive:
Cc1cccc(-c2noc(-c3cc4ccccc4oc3=O)n2)c1
O=C(Nc1cccnc1)c1ccc(COc2ccccc2Cl)o1
NC(=O)c1c(NC(=O)c2ccccc2Cl)sc2c1CCC2
COc1cc2nc(SCc3cccc(Cl)c3)n3nc(CCn4nc(C)cc4C)nc3c2cc1OC
Cc1ccccc1C(=O)Nc1cccc(C(=O)OCc2cc(=O)n3c4c(sc3n2)CCCC4)c1
O=C(NCCc1ccccc1)C1CCN(S(=O)(=O)N2CCCCC2)CC1
NC(=S)N/N=C/c1cccc(/C=N/NC(N)=S)c1
COc1ccc(NS(=O)(=O)c2cn(C)cn2)c(OC)c1
COc1ccc2cc(Br)ccc2c1CC(=O)NCC1CCCO1 (stereo unspecified)
COc1cccc(/C=C/C(=O)NNC(=O)CCN2CCN(Cc3ccccc3)CC2)c1
COc1ccc(C(C#N)c2ccc(=O)[nH]n2)cc1 (stereo unspecified)
